According to the supplement of paper PMC3334620:
Over roughly 33,000 sequences, “E-score (-0.5 to 0.5)” has its median near -0.041; the highest 2% begin near 0.37. The list shows a part of the results.

These sequences were tested against T1, Ecm22 (UniProt Q05958) (assay: PBM E-score (8-mer binding enrichment) (E-score (-0.5 to 0.5)); higher = stronger / more preferred TF binding; most listed sequences are background and not binding sites). Settings: protein concentration: 200 nM; construct: GST-full length.
T1 sequence: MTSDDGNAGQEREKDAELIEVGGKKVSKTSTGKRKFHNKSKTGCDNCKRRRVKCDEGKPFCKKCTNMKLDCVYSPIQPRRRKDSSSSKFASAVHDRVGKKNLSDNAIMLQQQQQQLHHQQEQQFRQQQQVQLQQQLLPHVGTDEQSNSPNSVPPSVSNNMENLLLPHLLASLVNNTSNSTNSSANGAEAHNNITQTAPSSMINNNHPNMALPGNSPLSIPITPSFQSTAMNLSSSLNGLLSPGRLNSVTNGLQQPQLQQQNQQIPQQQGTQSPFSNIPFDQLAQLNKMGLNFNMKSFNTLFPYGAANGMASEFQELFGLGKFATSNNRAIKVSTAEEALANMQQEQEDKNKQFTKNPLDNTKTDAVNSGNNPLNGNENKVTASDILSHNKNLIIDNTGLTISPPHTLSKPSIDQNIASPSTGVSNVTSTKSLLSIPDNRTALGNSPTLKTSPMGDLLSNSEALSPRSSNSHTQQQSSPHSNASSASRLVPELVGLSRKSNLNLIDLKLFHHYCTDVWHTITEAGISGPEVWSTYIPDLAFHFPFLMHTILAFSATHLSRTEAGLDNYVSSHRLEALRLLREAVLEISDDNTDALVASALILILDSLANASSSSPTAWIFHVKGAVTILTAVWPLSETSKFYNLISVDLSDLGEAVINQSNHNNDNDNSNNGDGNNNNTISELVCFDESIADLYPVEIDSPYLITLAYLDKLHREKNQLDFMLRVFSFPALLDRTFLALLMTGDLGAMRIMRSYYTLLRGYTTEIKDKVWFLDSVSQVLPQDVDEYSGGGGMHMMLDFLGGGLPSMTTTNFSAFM
Procedure, shortened: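 For each ungapped eight-base word taken together with its reverse complement, the Universal PBM Analysis Suite assigned an E-score. Binding data came from GST-tagged yeast transcription factors, applied at about 100-200 nM, on universal all-10-mer Agilent arrays made double-stranded by primer extension. Fluorescent anti-GST marked bound protein, and scans were normalised with masliner.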
With AGGGCGCA the “PBM E-score” value was -0.247.
ATGGAGGA was tested, and the “PBM E-score” value was 0.016.
CAGGGTCA was tested, and the “PBM E-score” value was -0.132.
CACGTATC was tested, and the “PBM E-score” value was 0.132.
For CAGAGAGA, the “PBM E-score” value was -0.046.
For GAAGGAGA, the “PBM E-score” value was -0.0339.
With ATAACTGG the “PBM E-score” value was 0.00042.
For AAATCCAA, the “PBM E-score” value was -0.0614.
With CAAACCTG the “PBM E-score” value was -0.104.
GGAGAACA was tested, and the “PBM E-score” value was 0.00184.
For CTAGCAAG, the “PBM E-score” value was -0.186.
For CCGTTATA, the “PBM E-score” value was 0.111.
For ACACAGAG, the “PBM E-score” value was -0.101.
In the case of AGGACAAT, the “PBM E-score” value is reported as -0.239.
In the case of GATAGCAA, the “PBM E-score” value is reported as -0.0305.
With ATGCATTA the “PBM E-score” value was 0.0729.
With ACTGAGCC the “PBM E-score” value was 0.0769.
CTGTAGAA was tested, and the “PBM E-score” value was -0.119.
AGAGGAAA was tested, and the “PBM E-score” value was -0.155.
For GAGTCAGA, the “PBM E-score” value was -0.0459.
With ACTAACAG the “PBM E-score” value was -0.0226.
With AACTCCGA the “PBM E-score” value was -0.0408.
With AGTGTTAA the “PBM E-score” value was -0.0442.
For AAAAACGG, the “PBM E-score” value was 0.13.
CCAATTAA was tested, and the “PBM E-score” value was -0.11.
In the case of CTGATGGA, the “PBM E-score” value is reported as -0.232.
With AGAGAGAA the “PBM E-score” value was -0.0389.
AAAAGGCC was tested, and the “PBM E-score” value was -0.0664.
In the case of CAATAAAA, the “PBM E-score” value is reported as -0.225.
For CCGGCTGC, the “PBM E-score” value was -0.0376.
With AATCTCTG the “PBM E-score” value was -0.106.
In the case of AAAGCTTT, the “PBM E-score” value is reported as -0.0648.
With ATAGTCTC the “PBM E-score” value was 0.0874.
For AAAACAGT, the “PBM E-score” value was 0.124.
ACAGCCCG was tested, and the “PBM E-score” value was -0.203.
In the case of AGTACGGA, the “PBM E-score” value is reported as 0.288.
With ACTCAGAC the “PBM E-score” value was -0.153.
With AGTCTGAA the “PBM E-score” value was -0.0981.
For ACGCCTTG, the “PBM E-score” value was -0.142.
For GCGCAGTA, the “PBM E-score” value was 0.107.
AGAACAGG was tested, and the “PBM E-score” value was -0.163.
With CATAATCC the “PBM E-score” value was -0.0735.
TTGTTAAA was tested, and the “PBM E-score” value was -0.0863.
In the case of GAATGGGA, the “PBM E-score” value is reported as -0.187.
With ATATCTTC the “PBM E-score” value was 0.0742.
With CTTGCCCC the “PBM E-score” value was -0.15.
GATCGTCC was tested, and the “PBM E-score” value was -0.0538.
With ACTACGTC the “PBM E-score” value was -0.195.
In the case of CACGGTTC, the “PBM E-score” value is reported as -0.175.
CCGAATTA was tested, and the “PBM E-score” value was 0.124.
For AAGCACCC, the “PBM E-score” value was 0.0476.
For AAATATGA, the “PBM E-score” value was -0.132.
ATCGAACG was tested, and the “PBM E-score” value was 0.201.
With ACCTACCT the “PBM E-score” value was -0.0978.
ATGACGCC was tested, and the “PBM E-score” value was -0.11.
With ACATCTGC the “PBM E-score” value was -0.142.
For GGTGTCGA, the “PBM E-score” value was 0.0114.
In the case of CTGAGGAC, the “PBM E-score” value is reported as -0.135.
For AACATATG, the “PBM E-score” value was 0.0682.
With AACTTAAT the “PBM E-score” value was -0.0568.
In the case of ACATAGTA, the “PBM E-score” value is reported as 0.172.
AGGGTAAA was tested, and the “PBM E-score” value was -0.181.
With CCAATCAA the “PBM E-score” value was -0.107.
With CTATGCGA the “PBM E-score” value was 0.319.
For CCTTGAGA, the “PBM E-score” value was -0.307.
With ACCAGATC the “PBM E-score” value was -0.185.
With ATAATCAT the “PBM E-score” value was 0.105.
In the case of CATGACCA, the “PBM E-score” value is reported as -0.141.
With CCCGTGCG the “PBM E-score” value was 0.0157.
In the case of GGCTAGCA, the “PBM E-score” value is reported as -0.37.
For ACAACGCG, the “PBM E-score” value was 0.147.
For GAGTGTAA, the “PBM E-score” value was -0.208.
With GAGCTCGC the “PBM E-score” value was 0.214.
CGATCCTA was tested, and the “PBM E-score” value was -0.061.
AGGGAACC was tested, and the “PBM E-score” value was 0.00984.
In the case of CCAGTATC, the “PBM E-score” value is reported as -0.00596.
AAGGAAAA was tested, and the “PBM E-score” value was 0.0839.
With AGGGCAAT the “PBM E-score” value was -0.179.
With AAGGCGGC the “PBM E-score” value was -0.143.
With GCGCGACA the “PBM E-score” value was -0.00306.
GCACCAAC was tested, and the “PBM E-score” value was -0.0644.
With CAGAGCTC the “PBM E-score” value was -0.278.
With ACGGTTCA the “PBM E-score” value was -0.0308.
GAGTTACC was tested, and the “PBM E-score” value was -0.024.
For ACGGGCTC, the “PBM E-score” value was 0.124.
With GAACCGTC the “PBM E-score” value was 0.0103.
